The values below come from PubChem BioAssay AID463173 (ICCB-Longwood Screening Facility, Harvard Medical School, 2010).

The whole screen tested about 52,000 compounds, of which about 1,700 (3.3%) were called active. Cut-off read from the data, not from the text of the source: active = survival mostly below about 52% (no sharp cut-off); inactive = mostly above about 56%. The list shows a part of the results.

The subject of the test is Wild type. Put plainly: S. aureus survival, RN4220 and DeltatarO strains – OD600, teichoic acid synthesis inhibitors, primary screen (AID 463173). Conditions: S. aureus RN4220 wild type/DeltatarO growth, OD600, 18 h, stronger effect = lower value, screened at 18.75 µg/mL (by protocol).
On to `Cc1cccc(NC(=O)CN(C)S(=O)(=O)c2ccc3c(c2)c(=O)n(C)c(=O)n3C)c1C`, for which the survival was inactive: 123%.

For the compound `C=Cn1cccc1C(=O)O`, the survival was inactive: 102%.

For `CCOc1c(Cl)cc(CNc2ccc3[nH]c(=O)[nH]c3c2)cc1OC`, the survival was inactive: 88%.

Regarding `CCOC(=O)C1Cc2c([nH]c3ccccc23)CN1` (stereo not drawn), the survival is inactive: 113%.

As to `CCN(CC)CCCNC(=O)c1ccc2c(c1)sc1nc(-c3ccc(C)cc3)cn12`, the survival is active: 8%.

With `COc1ccc(NC(=O)NC(C)c2c(-n3cccc3)sc(C)c2C)cc1OC` (stereo not drawn), the survival is inactive: 76%.

Regarding `CCCCOc1ccc(C(=O)Nc2cc(-c3cn4cccnc4n3)ccc2OC)cc1`, the survival is inactive: 66%.

For `COc1ccc(Cl)cc1C(=O)CSc1nnnn1C1CCCCC1`, the survival is inactive: 109%.

As to `CCOC(=O)C1CCN(C(=O)c2cnn(-c3ccc(F)cc3)c2-n2cccc2)CC1`, the survival is inactive: 89%.

As for `CCOC(=O)c1[nH]c2c(c1Cc1ccccc1)C(=O)CC(c1ccc(C(C)(C)C)cc1)C2` (stereo not drawn), the survival is inactive: 83%.

In the case of `CCCCN1C2CCCC1CC(NC(=O)C1CCCCC1)C2` (stereo not drawn), the survival is inactive: 94%.

For the compound `CCN(CC)CCCNC(=O)c1sc2nc3n(c(=O)c2c1C)CCCCC3`, the survival was inactive: 110%.

As for `CCc1[nH]nc2c1C1(C(=O)Nc3ccc(Cl)cc31)C(C#N)=C(N)O2` (stereo not drawn), the survival is inactive: 110%.

With `COc1ccc(-c2noc(CSc3nnc(Cc4ccccc4)n3-c3ccc(F)cc3)n2)cc1`, the survival was inactive: 70%.

For the compound `CN(CC(=O)Nc1ccc(F)cc1F)S(=O)(=O)c1cccc2nsnc12`, the survival is inactive: 78%.

Consider `CCN(CC)S(=O)(=O)c1cc(-c2ccc(=O)n(C(C)C(=O)Nc3cccc(C#N)c3)n2)ccc1C` (stereo not drawn), for which the survival was inactive: 62%.

For `CCc1ccc(NC(=O)CSc2nnc(CC)c(CC)n2)cc1`, the survival is inactive: 71%.

For `Cc1ccc(Cn2c(CN3CCC(C(=O)O)CC3)cc3ccccc32)cc1`, the survival was inactive: 82%.

As for `COc1ccc(C(=O)Nc2nc3c(s2)Cc2c(Br)ccc(OC)c2-3)cc1OC`, the survival is inactive: 86%.

Turning to `Cc1cc(C)cc(N(CC(=O)Nc2c(C)cc(C)cc2C)S(=O)(=O)c2c(C)nn(C)c2C)c1`, the survival is active: -6%.

As for `Cc1ccc(Nc2nc(Cl)nc(N(C)C#N)n2)cc1`, the survival was inactive: 112%.

Regarding `CCOc1cc(-c2nnc(SCC(=O)NC3CCCCC3)nc2-c2ccc(OC)c(OCC)c2)ccc1OC`, the survival is inactive: 72%.

Take `COc1ccc(CNC(=O)CCCn2ccc3cc(S(=O)(=O)N4CCCC4)ccc32)cc1`: the survival is inactive: 75%.

For `CC1(C)Cc2ccccc2C2=NNC(=O)C2=N1`, the survival was inactive: 114%.

Consider `CC(C)NC(=O)C1CCCN(c2ncnc3onc(-c4ccc(F)cc4)c23)C1` (stereo not drawn), for which the survival was inactive: 94%.

`CCOc1ccccc1NC(=O)CCS(=O)(=O)c1ccc2c(c1)oc(=O)n2C`: the survival is inactive: 73%.

Turning to `COc1ccc2oc(-c3cccc(NC(=O)c4cc([N+](=O)[O-])ccc4N4CCOCC4)c3)nc2c1`, the survival was inactive: 66%.

In the case of `CCOC(=O)C(C)Sc1nnc2cc(C)c3ccccc3n12` (stereo not drawn), the survival is inactive: 78%.

Consider `COc1cc(C2c3c(-c4c(C)cc(C)cc4O)n[nH]c3C(=O)N2Cc2ccco2)cc(OC)c1OC` (stereo not drawn), for which the survival is inactive: 98%.

In the case of `COc1ccc(OC)c(-c2cc(C(=O)Nc3c(C)nn(Cc4ccc(C)cc4)c3C)no2)c1`, the survival is inactive: 71%.

With `Cc1ccccc1CNC(=O)C1CCCCN1S(=O)(=O)c1ccc(F)cc1` (stereo not drawn), the survival was inactive: 74%.

As to `COc1ccc(C(CNC(=O)c2oc3cc(Br)ccc3c2C)N2CCCCC2)cc1` (stereo not drawn), the survival was inactive: 84%.

`O=[N+]([O-])c1ccc(S(=O)(=O)N2CCn3cccc3C2c2ccc(Br)cc2)cc1` (stereo not drawn): the survival is inactive: 71%.

As to `O=C(Cn1ncc2c3ccccc3n(Cc3ccccc3)c2c1=O)NCc1ccccn1`, the survival is inactive: 86%.

`Cc1ccc(-n2ncc3c(NCCCN(C)C)ncnc32)cc1Cl`: the survival was inactive: 78%.

Take `COc1ccc(Nc2ncc3c(n2)CCN(Cc2sccc2C)C3)c(OC)c1`: the survival was inactive: 73%.

Consider `COc1ccc2c(CNCCc3ccco3)c(C(=O)O)n(Cc3ccc(C)cc3)c2c1`, for which the survival was inactive: 86%.

Consider `Cc1ccc(-n2nc(C(=O)N(C)c3ccc(C)c(C)c3)c3c4ccccc4n(C)c3c2=O)cc1`, for which the survival is inactive: 101%.

Consider `Cc1ccc(NC(=O)c2c(C)oc3ccc(O)c(CN4CCN(Cc5ccccc5)CC4)c23)cc1`, for which the survival was inactive: 68%.

Take `O=C(CSc1ccccc1)NN1C(=O)c2ccccc2C1=O`: the survival is inactive: 112%.

Consider `CCOC(=O)CN1C(=O)N(c2ccc(C)c(C)c2)S(=O)(=O)c2ccccc21`, for which the survival is inactive: 87%.

Regarding `Cc1ccc(CN2CCC(CNC(=O)c3cnn(-c4ccc(C)cc4)c3C3CCN(C(=O)OC(C)(C)C)CC3)CC2)cc1`, the survival was inactive: 113%.

For `Cc1ccc(S(=O)(=O)N(CC(=O)Nc2cccnc2)c2cc(Cl)ccc2C)cc1`, the survival is inactive: 72%.

In the case of `COc1ccc(NC(=O)CC2C(=O)N(c3ccccc3)C(=O)N2CCc2sccc2C)cc1` (stereo not drawn), the survival is inactive: 78%.

Turning to `Cc1cccc(NC(=O)CCCn2nc(C)c3c(C)n(-c4ccccc4)nc3c2=O)c1C`, the survival is inactive: 82%.

For the compound `CCOc1ccc(CNC(=O)C2CCCN(c3nn4cc(-c5ccc(OC)cc5)nc4s3)C2)cc1` (stereo not drawn), the survival was inactive: 95%.

For `Cc1cc(=O)n(CC(=O)Nc2ccc(Cl)c(Cl)c2)c(-n2nc(C)cc2C)n1`, the survival is inactive: 128%.

Turning to `CC(C)CCNc1nc2c(-c3ccccc3)nnn2c2ccccc12`, the survival is inactive: 88%.

On to `Cc1ccc(C(=O)CSc2nc3cc(C(=O)NC4CCCC4)ccc3c(=O)n2CC2CCCO2)c(C)c1` (stereo not drawn), for which the survival is inactive: 63%.

With `COc1cccc(-c2cc(C(=O)Nc3cnn(Cc4ccc(Cl)cc4Cl)c3)no2)c1`, the survival is inactive: 112%.

In the case of `COc1cccc(NC(=O)c2oc3ccccc3c2NC(=O)c2ccccc2C)c1`, the survival was inactive: 63%.

For the compound `O=C(CC1N=C2c3ccccc3N=C(SCc3cccc(F)c3)N2C1=O)NCc1cccs1` (stereo not drawn), the survival was inactive: 77%.

For the compound `CCOc1ccc(CNC(=O)c2ccc(CSc3nc4ccncc4n3Cc3ccc(F)cc3)cc2)cc1`, the survival is inactive: 75%.

With `Cc1nn(-c2ccccc2)c2nc(C3CC3)cc(C(=O)Nc3cccc(F)c3)c12`, the survival was inactive: 74%.

As for `COC(=O)c1ccccc1NC(=O)CSc1n[nH]c(CC(C)C)n1`, the survival was inactive: 74%.

`CCCCN(CCCC)CCCNC(=O)c1ccc2nc(N3CCCCC3)sc2c1`: the survival is inactive: 81%.

Turning to `Cc1ccc(CNC(=O)CCNS(=O)(=O)c2ccc3c(c2)CCCC(=O)N3)cc1`, the survival is inactive: 64%.

As for `COc1ccc(OC)c(Nc2nc3ccccc3nc2-n2nc(C)cc2C)c1`, the survival was active: 10%.

In the case of `CCN(CC)S(=O)(=O)c1ccc(Cl)c(OC)c1`, the survival is inactive: 114%.

Regarding `COc1ccc(-c2nnn3c2nc(NCCc2ccc(OC)c(OC)c2)c2ccccc23)cc1`, the survival is inactive: 97%.

`Cc1nn2c(=O)cc(COc3ccc(/C=C(\C#N)C(=O)Nc4ccccc4C)cc3)nc2s1`: the survival is inactive: 80%.

Regarding `COc1ccc2c(c1)c1c(c(=O)n(-c3cc(Cl)ccc3C)c(=O)n1CC(=O)N1CCCC1)n2C`, the survival is inactive: 89%.

On to `Cc1ccc(Sc2c(C)nn(C(C)(C)C)c2OC(=O)CC(C)C)cc1`, for which the survival was active: -8%.

In the case of `Cc1c(C(=O)OC2CCC(C)CC2)[nH]c2c1C(=O)CC(c1ccc(F)cc1)C2` (stereo not drawn), the survival is inactive: 96%.

Take `CCOC(=O)c1cccc(NC(=O)CCc2c(C)nn(-c3ccc(N4CCCCC4)nn3)c2C)c1`: the survival is inactive: 95%.

As for `Cc1ccccc1NC(=O)c1c(NC(=O)c2ccccc2F)sc2c1CCC(C)C2` (stereo not drawn), the survival was inactive: 82%.

Take `COc1ccccc1NC(=O)c1ncn(-c2ccccc2)n1`: the survival is inactive: 112%.

As for `CCCCN1C(=O)c2[nH]nc(-c3ccccc3O)c2C1c1ccc(OCc2ccccc2)c(OC)c1` (stereo not drawn), the survival was inactive: 64%.

Take `COc1ccc(Cn2ccc3nc(C)c(C(=O)N4CCN(c5ccc(F)cc5)CC4)cc3c2=O)cc1`: the survival is inactive: 78%.

For `C(=N\c1nc2ccccc2n1Cc1ccccc1)/c1ccc2c(c1)OCO2`, the survival is inactive: 105%.

As for `Cc1ccc2nc(CSc3nnc(NC(=O)C(C)C)s3)cc(=O)n2c1`, the survival was active: -3%.

`CCOc1ccc(-c2cc3c(=O)n(Cc4nc(-c5ccc(OCC)c(OC)c5)oc4C)ccn3n2)cc1Cl`: the survival was inactive: 146%.

In the case of `CCCCn1cc2c(c1-c1ccc(Br)cc1)c(=O)n(C)c(=O)n2C`, the survival is inactive: 71%.

Take `Cc1cccc2c(=O)cc(CSc3ccccc3NC(=O)c3cccc(Cl)c3)[nH]c12`: the survival was inactive: 82%.

As to `CSc1ccc(C2c3c(-c4ccccc4O)n[nH]c3C(=O)N2Cc2ccncc2)cc1` (stereo not drawn), the survival is inactive: 92%.

As to `Cc1cccc(C(=O)NCCc2nc3ccccc3n2CCC(C)C)c1`, the survival was inactive: 116%.

Consider `COc1ccc(NCc2cc3ccc(OC)cc3n(CC(=O)Nc3ccc(C)c(C)c3)c2=O)cc1`, for which the survival is inactive: 66%.

As for `O=C(CN1C(=O)c2ccccc2S1(=O)=O)NC1CCCC1`, the survival was inactive: 108%.

In the case of `Cc1cccc(OCC(=O)Nc2c(C(=O)Nc3ccc(F)cc3)oc3ccccc23)c1`, the survival was inactive: 84%.

`Cc1cccc(N2C(=O)CSC23C(=O)N(C)c2ccccc23)c1` (stereo not drawn): the survival is inactive: 71%.

With `CCOc1ccc(OCC)c(NC(=O)c2cnn(-c3ccc(F)cc3)c2-n2cccc2)c1`, the survival was inactive: 66%.

As for `CCc1ccc(-n2nc(C)c3c(C)cc(=O)n(CC(=O)Nc4cc(Cl)ccc4OC)c32)cc1`, the survival was inactive: 64%.

`COc1cc(NC(=O)NCCc2c(C)nn(C)c2C)cc(OC)c1OC`: the survival was inactive: 81%.

With `CCCN1CCN(c2nnc(-n3cccc3C(=O)Nc3ccccc3C(F)(F)F)s2)CC1`, the survival was inactive: 148%.

On to `C/C(=N\NC(=O)C1CC1(C)c1ccccc1)c1ccco1` (stereo not drawn), for which the survival was inactive: 108%.

`O=c1c2sc3ccccc3c2n(Cc2cccc(Cl)c2)c(=O)n1Cc1ccccc1`: the survival was inactive: 82%.

Turning to `COc1ccc(S(=O)(=O)Nc2cccc(-c3ccc(N4CCCCCC4)nn3)c2)cc1OC`, the survival was inactive: 55%.

In the case of `CC(C)(C)OC(=O)N1CCC(c2c(C(=O)N3CCN(c4cccc(Cl)c4)CC3)cnn2-c2cccc(Cl)c2)CC1`, the survival is inactive: 146%.
